Among all 48,000 compounds or so, about 450 (0.94%) were called active. Not shown: some 19% with an inconclusive outcome. Calls come from the whole dose curve; as a rule, active = well fitted inhibition curve with a large enough effect; inconclusive = small, poorly fitted or top-dose-only effect; inactive = no such curve, though single readings can be large or run the other way. The list shows a part of the results.
Assay: Primary qHTS for Identification of Small Molecule Inhibitors of Huntingtin Promoter Activity; note: nearly all actives have a fitted effect of over 50% in size
Conditions: HEK293 HTT promoter firefly luciferase reporter (activity 0% = vehicle and -100% = no light), 24 h; series mostly up to 57.5 µM; activity change, negative = inhibition: at the top concentration
How it was run: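 HEK293 luciferase promoter-reporter cells (2,500/well) plated 24 h, then compounds added at up to 57.5 uM final for 24 h at 37 °C. Firefly luminescence by Dual-Glo, normalized to vehicle (0%) and zero RLU (-100%).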

Activity change, negative = inhibition, inactive:
CCc1ccc(OCC(=O)Nc2ccc3oc(-c4ccc(OC)cc4)nc3c2)cc1 39.8%
COC(=O)CC1Oc2ccc(Cl)cc2-n2cc(-c3ccc(F)cc3)nc21 (stereo unspecified) 2.04%
O=C(COc1ccccc1)Nc1c(Cl)ccc2nsnc12 -32.4%
CCCCCCCCCCCC(CC1OC(=O)C1CCCCCC)OC(=O)C(CC(C)C)NC=O (stereo unspecified) -6.6%
CCN1CCN(C(=O)c2c(C)nn(-c3ccc(F)cc3)c2-n2cccc2)CC1 -15.1%
CC(C)(C)NC(=O)CCSc1nc(-c2ccc3c(c2)OCO3)cc(C(F)(F)F)n1 0.616%
CN(Cc1ccccc1)c1ccc(-c2nc(-c3cccnc3)no2)cc1[N+](=O)[O-] 0.186%
CCN(Cc1ccccc1)S(=O)(=O)c1ccc2[nH]c3c(c2c1)CCCCC3 -32.9%
CCOC(=O)c1cccc(NC(=O)c2nn(-c3ccc(OC)cc3)c(=O)c3c2c2ccccc2n3C)c1 -23.6%
Cc1cc(-c2nc3ncccc3o2)ccc1NC(=O)COc1cc(C)c(Cl)c(C)c1 -15.3%
CN(C)c1ccc(CNC(=O)c2cccn2-c2nnc(N3CCCCC3)s2)cc1 -27.1%
Cc1ccc(C)c(NC(=O)CSc2nc(-c3ccccc3Cl)nc3c2Cc2c(CO)cnc(C)c2O3)c1 -18%
CCOC(=O)c1cnc2nc(NCc3ccc(OCC)cc3)[nH]n2c1=O -1.96%
O=C(NCc1ccc(F)cc1)C(=O)NCC(c1cccs1)S(=O)(=O)c1cccs1 (stereo unspecified) -33.4%
CCc1ccccc1NC(=O)CN1C(=O)COc2ccc(S(=O)(=O)N3CCCCCC3)cc21 -3.49%
CCN(CC)S(=O)(=O)c1ccc2c(c1)N(CC(=O)NCC(C)c1ccccc1)C(=O)CO2 (stereo unspecified) -11.4%
CCn1cc(C(=O)N2CCN(c3ccccc3OC)CC2)c(=O)c2cc(S(=O)(=O)N3CCC(C)CC3)ccc21 -6.15%
CC(C)Oc1ccc(CNC(=O)c2ccccc2NC(=O)c2nsc3ccccc23)cc1 9.33%
CC(=O)Oc1cccc(C)c1 5.02%
CNS(=O)(=O)c1cn(CC(=O)N2CCN(c3cccc(Cl)c3)CC2)cc1S(=O)(=O)NC -4.77%
O=C(CCCCn1c(=O)c2ccccc2n(Cc2ccccc2F)c1=O)NCc1ccccc1Cl 0.891%
Cc1ccc(NC(=O)CSc2nc3ccc(NC(=O)CCc4ccccc4)cc3s2)c(C)c1 4.01%
COC(=O)c1ccc(CN(Cc2ccc(OC)c(OC)c2)S(=O)(=O)c2cc(C(=O)Nc3cccc(C)c3)ccc2F)cc1 -19.6%
CCCCC(C=O)NC(=O)C(CC(C)C)NC(=O)OCc1ccccc1 (stereo unspecified) -22.7%
Cc1oc(-c2ccccc2F)nc1CSCC(=O)NCCc1ccccc1 -29.4%
CCC(Oc1ccccc1)C(=O)Nc1ccc(OCc2cc(=O)n3ccc(C)cc3n2)cc1 (stereo unspecified) -4.53%
COc1ccc(NC(=O)CN(C)S(=O)(=O)c2ccc3nc(C)sc3c2)cc1 -18%
COc1ccc(N2C(=O)CS(=O)(=O)C23C(=O)N(Cc2c(F)cccc2Cl)c2ccccc23)cc1 (stereo unspecified) -27%
CCCCn1cc(S(=O)(=O)c2ccccc2)c(=O)c2cc(F)c(N3CCC(C)CC3)cc21 -6.11%
CCOC(=O)c1cnc2c(C)cc(C)cc2c1Nc1ccc(OCc2ccccc2)cc1 -25.2%
COc1ccc(NC(=O)C2=C(C)Nc3ncnn3C2c2ccccn2)cc1 (stereo unspecified) -12.4%
CCOC(=O)C1=C(C(F)(F)F)Nc2ncnn2C1c1cccc(OC)c1OC (stereo unspecified) -15.7% [at 11.5 µM]
CCOc1ccc(CNC(=O)CCc2cn(CC)c3ccccc23)cc1 -7.83%
CC1=C(c2ccc(C)c(C)c2)S(=O)(=O)N=C1N1CCC(C(=O)N2CCCCC2)CC1 -23.8%
CCCOc1ccccc1-c1nc2n[nH]nc2c(=O)[nH]1 -2.68%
CCc1ccc(NC(=O)C2CCN(S(=O)(=O)c3c(C)noc3/C=C\c3ccc(OC)cc3)CC2)cc1 -15.6%
COc1cc(C(=O)Nc2ccc(OCc3cc(=O)n4cccc(C)c4n3)cc2)cc(OC)c1OC 0.725%
COc1ccccc1CNc1ccc(-c2nc(-c3cccc(C)c3)no2)cc1[N+](=O)[O-] -0.489%
CCOc1ccccc1N1CC(c2nc3ccccc3n2CCCCOc2cc(C)ccc2C)CC1=O (stereo unspecified) -6.35%
O=C(c1cnc(N2CCOCC2)c2ccccc12)N1CCN(c2ccccc2F)CC1 -25.9%
CN(C)c1ccc(CNC(=O)c2ccc3c(c2)N(C)C(=O)C2CCCCN32)cc1 (stereo unspecified) 11.3%
COc1ccc(-n2nc(C(=O)NCc3ccc(F)cc3)c3c4ccccc4n(C)c3c2=O)cc1 -9.8%
N#C/C(=C/c1ccccc1Cl)c1nc(-c2cc3ccccc3oc2=O)cs1 16.1%
O=C(Cn1c(=O)n(CC2CCCO2)c(=O)c2ccccc21)Nc1ccc(F)cc1F (stereo unspecified) -11.2%
COc1cc(C)ccc1OCCSc1nc2ccc(NC(=O)c3ccccc3F)cc2s1 -11.4%
COC(=O)c1cc(NC(=O)Cn2nc(-c3ccccc3)c3c(c2=O)CCCC3)cc(C(=O)OC)c1 -4.52%
